In all, about 81,000 sequences were measured (“one-hybrid fitness for binding NBS DNA”: median about -0.1, highest 2% from about 0.36 on). The list shows a part of the results.
B1: Caulobacter ParB omega fusion; a variant is named by its letters at X, in order, B8GW30 (parent)
chain: MESVVVGEPGMSEGRRGLGRGLSALLGEVDAAPAQAPGEQLGGSREAPIEILQRNPDQPRRTFREEDLEDLSNSIREKGVLQPILVRPSPDTAGEYQIVAGERAWRAAQRAGLKTVPIMVRELDDLAVLEIGIIENVQRADLNVLEEALSYKVLMEKFERTQENIAQTIGKSXSHVANXMRLLXLPDEVQSYLVSGELTAXHARAIAAAADPVALAKQIIEGGLSVRETEALARKAPNLSAGKSKGGRPPRVKDTDTQALESDLSSVLGLDVSIDHRGSTGTLTITYATLEQLDDLCNRLTRGI

Variants of: B1
Experiment: one-hybrid fitness for binding NBS DNA (the Noc-binding site; scaled: cognate 1, non-cognate 0); higher = stronger binding
Details: with NBS DNA site
Summary of the method: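 Fitness is the rescaled log change in variant-to-wild-type read ratio, measured by Illumina sequencing of plasmids before and after bacterial one-hybrid selection. The scale puts cognate at 1 and non-cognate at 0. Selection of Caulobacter ParB libraries, four specificity codons randomised, took place in E. coli USO with a HIS3 reporter, site 19 bp from the promoter, over 48 hours at 37°C on M9-minus-histidine with 0.1 mM IPTG and 5 mM 3-AT.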

Variant | one-hybrid fitness for binding NBS DNA
AYRE | ≤ 0.2
RFRL | ≤ 0.2
TMCI | ≤ 0.2
NGSP | ≤ 0.2
SLFG | ≤ 0.2
PHIY | ≤ 0.2
SSKF | ≤ 0.2
NVHT | ≤ 0.2
PRLH | ≤ 0.2
RLWN | ≤ 0.2
DQQS | ≤ 0.2
YQVV | ≤ 0.2
CIKC | ≤ 0.2
RVDD | ≤ 0.2
QLKK | 0.346
ACNI | ≤ 0.2
NDFR | ≤ 0.2
RNVA | ≤ 0.2
FNTM | ≤ 0.2
CIER | ≤ 0.2
DHKT | ≤ 0.2
AFNS | ≤ 0.2
PSHL | ≤ 0.2
SPNT | ≤ 0.2
HALV | ≤ 0.2
SIRH | ≤ 0.2

Variant | one-hybrid fitness for binding NBS DNA
SPST | ≤ 0.2
RPNL | ≤ 0.2
DQPM | ≤ 0.2
STRR | 0.244
ARSN | ≤ 0.2
QCCC | ≤ 0.2
RGCF | ≤ 0.2
EKER | ≤ 0.2
TAIT | ≤ 0.2
PDTE | ≤ 0.2
GADV | ≤ 0.2
EIAT | ≤ 0.2
TIHC | ≤ 0.2
VYSN | ≤ 0.2
VATG | ≤ 0.2
ASKY | ≤ 0.2
DLPY | ≤ 0.2
ACHK | ≤ 0.2
ALYC | ≤ 0.2
SNGV | ≤ 0.2
HFKT | ≤ 0.2
RKIN | ≤ 0.2
GVGT | ≤ 0.2
TSTV | ≤ 0.2
RPYD | ≤ 0.2
PKMN | ≤ 0.2

Variant | one-hybrid fitness for binding NBS DNA
QSTA | 0.219
KEHT | ≤ 0.2
WYVV | ≤ 0.2
FVRM | ≤ 0.2
QLQY | ≤ 0.2
MRER | ≤ 0.2
KRSV | ≤ 0.2
RHEI | ≤ 0.2
CTRF | ≤ 0.2
VTQT | ≤ 0.2
TSVS | ≤ 0.2
PFSR | ≤ 0.2
AHGN | ≤ 0.2
HCTF | ≤ 0.2
QSCC | ≤ 0.2
PECT | ≤ 0.2
PCCY | ≤ 0.2
RKAL | ≤ 0.2
VYKP | ≤ 0.2
HFLT | ≤ 0.2
HHEG | ≤ 0.2
YLSQ | ≤ 0.2
VSMS | ≤ 0.2
HAGM | ≤ 0.2
ASML | ≤ 0.2
QHPC | ≤ 0.2

Variant | one-hybrid fitness for binding NBS DNA
VLWL | ≤ 0.2
MKPA | ≤ 0.2
WQSC | ≤ 0.2
AQHS | ≤ 0.2
AFSW | ≤ 0.2
MHHD | ≤ 0.2
HPRA | ≤ 0.2
YQST | ≤ 0.2
VYSK | ≤ 0.2
QWAV | ≤ 0.2
VIWC | ≤ 0.2
GPLR | ≤ 0.2
LRPF | ≤ 0.2
AMNS | ≤ 0.2
GKSN | ≤ 0.2
VRNS | ≤ 0.2
WSYG | ≤ 0.2
ESMD | ≤ 0.2
HPFS | ≤ 0.2
PISC | ≤ 0.2
CHSV | ≤ 0.2
RGDL | ≤ 0.2
QYTL | ≤ 0.2
QVSW | ≤ 0.2
STVN | ≤ 0.2
EYIC | ≤ 0.2

Variant | one-hybrid fitness for binding NBS DNA
CRML | ≤ 0.2
WSWT | ≤ 0.2
ANCA | ≤ 0.2
GRIG | ≤ 0.2
ATTL | ≤ 0.2
KYCT | ≤ 0.2
FMES | ≤ 0.2
QWGH | ≤ 0.2
RPII | ≤ 0.2
EGHP | ≤ 0.2
TSLN | ≤ 0.2
EIHG | ≤ 0.2
TIWP | ≤ 0.2
KGCG | ≤ 0.2
ISTL | ≤ 0.2
PIRF | ≤ 0.2
DNLN | ≤ 0.2
YWYG | ≤ 0.2
KLDG | ≤ 0.2
HMGY | ≤ 0.2
PSNA | ≤ 0.2
IVTC | ≤ 0.2
VAGE | ≤ 0.2
ESRT | ≤ 0.2
FWKR | 0.328
NSRC | ≤ 0.2

Variant | one-hybrid fitness for binding NBS DNA
MLMG | ≤ 0.2
VKLT | ≤ 0.2
KLPW | ≤ 0.2
VHPV | ≤ 0.2
AVTY | ≤ 0.2
FNVG | ≤ 0.2
LVQY | ≤ 0.2
KHWR | ≤ 0.2
MLWS | ≤ 0.2
LLHV | ≤ 0.2
PKTM | ≤ 0.2
KRMY | ≤ 0.2
ATDM | ≤ 0.2
YKTP | ≤ 0.2
RCME | ≤ 0.2
LVGY | ≤ 0.2
LPSW | ≤ 0.2
SPWS | ≤ 0.2
NQRY | ≤ 0.2
TKMP | ≤ 0.2
CISG | ≤ 0.2
PDCC | ≤ 0.2
SDSD | ≤ 0.2

Reference: a collection of fitness landscapes (doi:10.1016/j.celrep.2020.107928)
